This is an account of results in the RNAGym collection of RNA variant scans (doi:10.7554/elife.90254).

The chains are these.
B1: OR4K15 (parent)
chain: GUUAACGGUCAUAGGCCAUGGAAACUAGGAGCACCAUUUCGCUGCCAGUGAAGAAAUGAACAAAGAAAAUCUGGGCCAGGCAGGCAUCAAAAGAAAUAGUCUUGCGCUCAACCAGAAAGUCUGUAAUCAUUUUAAGGGUA

Read counts are not given, so values of variants with three or more changes are uncertain.

In the series the parent is B1. Briefly: self-cleavage, relative activity (ratio to wild type); higher = more cleavage; in vitro, sequencing; the parent is a self-cleaving ribozyme.
For the variant GUUAACGGUCAUAGGCCAUGGAAACUAGGAGCACCAUCUCGCUGCCAGUGAAGAAAUGAACAAAGGAAAUCUGGGCCUGGCAGGCAUCAAAAGAAAUAGUCUUGCGCUCAACCAGAAAGUCUGUAACCAUUUUAAGGGUA [U38C A66G A78U U127C], the self-cleavage is 0.4.
As to GUUAACGGUCAUAGGCCAUGGAAACUAGGAGCACCAUCUCGCUGCCAGUGAAGAGAUGAACAAAGAAAAUCUGGGUCAGGCAGGCAUCAAAAGAAAUGGUCUUGCGCUCAACCAGAAAGUCUGUAAUCAUUUUAUGGGUA [U38C A55G C76U A98G A135U], the self-cleavage was 0.06.
Consider GUUAACGGUCAUAGGCCAUGGAAACUAGGAGCACCAUCUCGCUGCCAGUGAAGAAAUGGACAAAGAAAAUCUGGGCCAGGCAGGCAUCAAAAGGAAUAGUCUUGCGCUCAACCAGAAAGUCUGUAAUCAUUUUAAGGGUA [U38C A59G A94G], for which the self-cleavage came out at 1.78.
The result for GUUAACGGUCAUAGGCCAUGGAAACUAGGAGCACCAUCUCGCUGCCAGUGAAGAAAUGAACUAAGAAAAUCUGGGCCAGGCAGGCAUCAAAAGAGAUAGUCUUGCGCUCAACCAGAAAGUCUGUAAUCAUUUUAAGGGUA [U38C A62U A95G] reads 2.11.
In the case of GUUAACGGUCAUAGGCCAUGGAAACUAGGAGCACCAUCUCGCUGCCAGUGAAGAAAUGAACAAAGGAAAUCUGGGCCAGGCAGGCACCAAAAGGAAUAGUCUUGCGCCCAACCAGAAAGUCUGUAAUCAUUUUAAGGGUA [U38C A66G U87C A94G U108C] it was 0.01.
The result for GUUAACGGUCAUAGGCCAUGGAAACUAGGAGCACCAUCUCGCUGCCAGUGAAGAGAUGAACAAAGAAAAUCUGGGCCAGGCAGGCAUCAAAAGAAAUAAUCCUGCGCUCAACCAGAAAGUCUGUAAUCGUUUUAAGGGUA [U38C A55G G99A U102C A129G] reads 0.56.
For GUUAACGGUCAUAGGCCAUGGAAACUAGGAGCACCAUCUCGCUGCCAGUGAAGAGAUGAACAAAGAAAAUCUGGGCCAGGCAGGCAUCAAAAGAAAUAGUCUUGCGCUCAACCAGAAAGUCUGUAAUCACUUUAAGGGUA [U38C A55G U130C], the self-cleavage is 1.34.
GUUAACGGUCAUAGGCCAUGGAAACUAGGAGCACCAUCUCGCUGCCAGUGAAGACGAGAACAAAGAAAAUCUGGGCCAGGCAGGCAUCAAAAGAAAUAGUCUUGCGCUCAACCAGAAAGUCCGUAAUCAUUUUAGGGGUA [U38C A55C A56G U57A U122C A135G]: the self-cleavage was 0.21.
The result for GUUAACGGUCAUAGGCCAUGGAAACUAGGAGCACCAUCUCGCUGCCAGUGAAGAAGUGGACAAAGAAAAUCUGGGCCAGGCAGGCAUCAAAAGAAAUAGUCUUGCGCUCAACCAGAAAGUCUGUAAUCAUUUUAAGGGUA [U38C A56G A59G] reads 0.64; that for GUUAACGGUCAUAGGCCAUGGAAACUAGGAGCACCAUCUCGCUGCCAGUGAAGAAGUGAACAAAGAGAAUCUGGGCCAGGCAGGCAUCGAAAGAAAUAGUCUUGCGCUCAACCAGAAAGUCUGUAAUCAUUUUAAGGGUA [U38C A56G A67G A89G], 0.75.
As for GUUAACGGUCAUAGGCCAUGGAAACUAGGAGCACCAUCUCGCUGCCAGUGAAGAAAUGAACAGAGAAAAUCUGGGCCAGGCAGGCAUCAAAAGAAGUAGUCUUGCGCUCAACCAGAAAGUCUGUAAUCAUUUUAAGGGUA [U38C A63G A96G], the self-cleavage came out at 0.45.
Consider GUUAACGGUCAUAGGCCAUGGAAACUAGGAGCACCAUCUCGCUGCCAGUGAAGAAGUGAACAAAGAAAACCUGGGCCAGGCAGGCAUCAAAAGAAAUAGUCUUGCGCUCAACCAGAAAGUCUGUAAUCAUUUUAAGGGUG [U38C A56G U70C A140G], for which the self-cleavage stood at 0.43.
As for GUUAACGGUCAUAGGCCAUGGAAACUAGGAGCACCAUCUCGCUGCCAGUGAAGAAGUGAACAAAGAAAAUCUGGGCCAGGCAGGCAUCAAAAGAAAUAGUCUUGCGCUCAACCGGAAAGUCUGUAAUCAUUUUAAGGGUA [U38C A56G A114G], the self-cleavage worked out at 0.2.
The result for GUUAACGGUCAUAGGCCAUGGAAACUAGGAGCACCAUCUCGCUGCCAGUGAAGAAAUGAACAAGGAAAAUCUGGGCCAGGCAGGCAUCAAAAGAGAUAGUCUUGCGCUCAACCAGAAAGUCUGUAAUCAUUUUAAGGGUA [U38C A64G A95G] reads 2.09.
In the case of GUUAACGGUCAUAGGCCAUGGAAACUAGGAGCACCAUCUCGCUGCCAGUGAAGGAAUGAACAAAGAAAAUCCGGGCCAGGCGGGCAUCAAAAGAAAUAGUCUUGCGCUCAACCAGAAAGUCUGUAAUCAUUUUAAGGGUA [U38C A54G U72C A82G], the self-cleavage came out at 0.17.
In the case of GUUAACGGUCAUAGGCCAUGGAAACUAGGAGCACCAUCUCGCUGCCAGUGAAGAAAUGAGCAAAGAGAAUCUGGGCCAGGCAGGCAUCAAAAGAAAUAGUCUUGCGCUCAACCAGAAAGUCUGUAAUCAUUUUAAGGGUU [U38C A60G A67G A140U] it was 1.31.
For GUUAACGGUCAUAGGCCAUGGAAACUAGGAGCACCAUCUCGCUGCCAGUGAAGAGAUGAACAAAGAAAAUCUGGGCCAGGCCGGCAUCAAAAGAAAUAGUCCUGCGCUCAACCCGAAAGUCUGUAAUCAUUUUAAGGGUA [U38C A55G A82C U102C A114C], the self-cleavage was 0.01.
In the case of GUUAACGGUCAUAGGCCAUGGAAACUAGGAGCACCAUCUCGCUGCCAGUGAAGAAGUGAACAAAGAAAAUCUGGGCCAGGCAGGCAUCAAAAGGAAUAGUCUUGCGCUCAACCAGAAAGUCUGUAAUCAUUUUAAGGGUA [U38C A56G A94G] it was 2.12.
On to GUUAACGGUCAUAGGCCAUGGAAACUAGGAGCACCAUCUCGCUGCCAGUGAAGAAAUGAACAAGGAAAAUCUGGGCCUGGCAGGCGUCAUAAGAAAUAGUCUUGCGCUCAACCAGAAAGUCUGUAAUCAUUUUAAGGGUA [U38C A64G A78U A86G A90U], for which the self-cleavage worked out at 0.11.
The result for GUUAACGGUCAUAGGCCAUGGAAACUAGGAGCACCAUCUCGCUGCCAGUGAAGAAGUGAACAAAGAAAAUCUGGGCCAGGCAGGCAUCAAAAGAAAUAGUCUUGCGCUCAACCAGAAAGUCUGUAAUCAUUUUAAGGGUG [U38C A56G A140G] reads 1.15.
